# PubChem BioAssay (Tox21)
# This list was built around the results that the source calls inconclusive (neither active nor inactive); the mix of calls is not that of the screen. For part of these data: Where the call is inconclusive, the potency comes from a doubtful curve fit. Activity calls are given as the source filed them. Unless noted, calls come from the whole dose curve; as a rule, active = well fitted curve in the direction sought with a large enough effect in the repeat runs; inconclusive = weak or mixed curves; inactive = no such curve, though single readings can be large; an effect the other way counts as inactive or inconclusive.
# Experiments:
# [1] = qHTS assay to identify small molecule antagonists of the TGF-beta/Smad signaling pathway (AID 1346924; active = well fitted inhibition curve with a large enough effect in the signal ratio in the repeat runs, not every such curve was filed as active; inconclusive = weak or mixed curves; the % refers to the signal ratio); conditions: SBE-bla HEK293T, TGF-beta/Smad reporter, beta-lactamase ratio; activity, negative = inhibition: at 76.8 µM (top of the series) unless noted
# Outline: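 Read-out was FRET-substrate fluorescence (405 nm excitation; 460 and 530 nm emission) after 2 h at room temperature. Before that, cells carrying a Smad-binding-element beta-lactamase reporter in HEK 293T had been stimulated 5 h at 37 C with TGF-beta1 (0.25 ng/mL addition solution) in the presence of test compound.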
# [2] = Human pregnane X receptor (PXR) small molecule agonists, qHTS cell viability counter screen (AID 1346977); note: % is set by controls: 0 for no effect and ±100 for the full control effect; nearly all actives have a fitted effect of over 50% in size
# Outline: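 In each well, the PXR reporter HepG2 line was checked for viability: CellTiter-Fluor reagent added 23hr post-dosing, fluorescence read after 1hr incubation at 37C.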
# [3] = molecular target: Nuclear receptor subfamily 1 group I member 2 (Homo sapiens) (UniProt O75469); assay: Human pregnane X receptor (PXR) small molecule agonists, qHTS assay (AID 1346982); note: nearly all actives have a fitted effect of over 35% in size; note: potency is the fitted concentration of half-maximal effect; for activation: % is set by controls: 0 for no effect and ±100 for the full control effect
# Outline: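 After plating in 5% charcoal-stripped FBS and a 5 hr rest, PXR-Luc HepG2 cells received compounds in DMSO. Following 24 hr at 37 C, ONE-Glo was added and light output read.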
# [4] = molecular target: Nuclear receptor subfamily 1 group I member 2 (Homo sapiens) (UniProt O75469); assay: CYP3A4 induction through human pregnane X receptor (PXR) by small molecules, qHTS assay (AID 1346984); note: potency is the fitted concentration of half-maximal effect; nearly all actives have a fitted effect of over 40% in size
# Outline: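 Human PXR activation is tracked via CYP3A4 promoter-luciferase in DPX-2 (HepG2) cells. Compounds treat cells for 24hr at 37C, and luminescence is read after One-Glo.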
# [5] = molecular target: Nuclear receptor subfamily 1 group I member 2 (Homo sapiens) (UniProt O75469); assay: Human pregnane X receptor (PXR) activation by small molecules, qHTS assay (AID 1346985); note: potency is the fitted concentration of half-maximal effect; nearly all actives have a fitted effect of over 40% in size
# Outline: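 DPX-2 cells (HepG2 co-transfected with a PXR response element and a CYP3A4-promoter luciferase construct) were seeded at 2,000 per well, rested 5 hr at 37C, then exposed to DMSO-dissolved compounds for 24 hr. Activation was read as luciferase luminescence.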
# [6] = molecular target: Cytochrome P450 2C9 (Homo sapiens) (UniProt P11712); assay: Cytochrome P450 Family 2 Subfamily C Member 9 (CYP2C9) small molecule antagonists: luciferase reporter qHTS assay (AID 1671198); note: potency is the fitted concentration of half-maximal effect; nearly all actives have a fitted effect of over 50% in size
# Chain of UniProt P11712 (P11712 whole entry, looked up): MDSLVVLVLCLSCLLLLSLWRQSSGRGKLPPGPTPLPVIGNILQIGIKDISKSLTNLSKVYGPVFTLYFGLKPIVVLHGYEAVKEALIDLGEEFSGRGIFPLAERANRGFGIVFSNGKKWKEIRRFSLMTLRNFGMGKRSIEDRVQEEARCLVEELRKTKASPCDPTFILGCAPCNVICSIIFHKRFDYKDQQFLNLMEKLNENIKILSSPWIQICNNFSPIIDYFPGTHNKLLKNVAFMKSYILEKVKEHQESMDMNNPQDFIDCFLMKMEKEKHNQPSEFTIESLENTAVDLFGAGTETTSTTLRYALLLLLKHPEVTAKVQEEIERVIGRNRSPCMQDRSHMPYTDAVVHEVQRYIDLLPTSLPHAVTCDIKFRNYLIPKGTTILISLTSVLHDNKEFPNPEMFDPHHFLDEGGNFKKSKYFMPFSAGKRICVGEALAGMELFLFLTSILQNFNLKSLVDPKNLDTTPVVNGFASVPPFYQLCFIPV
# Outline: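 CYP2C9 activity was measured with a P450-Glo proluciferin substrate. Enzyme–substrate mix was held with compound for 10 min at room temperature, then NADPH regeneration solution was added for 1 h at 37C. Luciferin product was read as luminescence.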
# [7] = molecular target: Cytochrome P450 1A2 (Homo sapiens) (UniProt P05177); assay: Cytochrome P450 Family 1 Subfamily A Member 2 (CYP1A2) small molecule antagonists: luciferase reporter qHTS assay (AID 1671199); note: potency is the fitted concentration of half-maximal effect; nearly all actives have a fitted effect of over 50% in size
# Chain of UniProt P05177 (P05177 whole entry, looked up): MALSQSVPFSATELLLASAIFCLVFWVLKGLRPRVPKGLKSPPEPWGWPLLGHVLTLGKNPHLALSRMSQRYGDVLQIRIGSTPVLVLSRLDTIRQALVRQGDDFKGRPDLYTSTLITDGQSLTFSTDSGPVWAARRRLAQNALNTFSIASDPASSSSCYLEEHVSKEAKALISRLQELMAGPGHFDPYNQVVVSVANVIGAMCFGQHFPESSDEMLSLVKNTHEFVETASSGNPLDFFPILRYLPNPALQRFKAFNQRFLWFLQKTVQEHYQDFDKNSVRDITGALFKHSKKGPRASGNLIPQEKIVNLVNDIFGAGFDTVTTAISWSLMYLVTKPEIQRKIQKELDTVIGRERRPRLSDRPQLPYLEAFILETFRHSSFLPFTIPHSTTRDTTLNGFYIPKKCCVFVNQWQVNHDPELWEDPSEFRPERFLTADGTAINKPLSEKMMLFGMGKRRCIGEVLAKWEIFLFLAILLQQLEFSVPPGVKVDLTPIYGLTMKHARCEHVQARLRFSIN
# Outline: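 Quantitative high-throughput format using the P450-Glo CYP1A2 system. Reaction initiated by NADPH regeneration solution, 1 h at room temperature, then stopped with detection reagent; luminescence measured 20 min later.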
# [8] = molecular target: Cytochrome P450 2D6 (Homo sapiens) (UniProt P10635); assay: Cytochrome P450 Family 2 Subfamily D Member 6 (CYP2D6) small molecule antagonists: luciferase reporter qHTS assay (AID 1671196); note: nearly all actives have a fitted effect of over 50% in size; note: potency is the fitted concentration of half-maximal effect
# Chain of UniProt P10635 (P10635 whole entry, looked up): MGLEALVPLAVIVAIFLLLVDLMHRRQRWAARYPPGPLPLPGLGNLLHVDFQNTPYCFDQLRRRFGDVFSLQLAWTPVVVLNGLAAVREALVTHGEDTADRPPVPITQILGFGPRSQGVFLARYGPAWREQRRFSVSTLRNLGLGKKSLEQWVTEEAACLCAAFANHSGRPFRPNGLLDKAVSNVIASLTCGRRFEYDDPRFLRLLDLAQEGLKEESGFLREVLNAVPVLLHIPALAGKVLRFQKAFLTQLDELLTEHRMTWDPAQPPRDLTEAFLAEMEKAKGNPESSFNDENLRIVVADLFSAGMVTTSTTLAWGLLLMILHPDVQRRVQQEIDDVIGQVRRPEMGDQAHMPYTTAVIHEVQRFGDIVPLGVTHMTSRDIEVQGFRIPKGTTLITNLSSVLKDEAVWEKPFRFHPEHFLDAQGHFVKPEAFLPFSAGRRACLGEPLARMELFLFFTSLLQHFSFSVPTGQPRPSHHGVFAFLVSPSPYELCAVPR
# Outline: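 Quantitative HTS of Tox21 chemicals against CYP2D6 using a luminescent proluciferin substrate. After NADPH addition, 1 h room-temperature reaction; luminescence recorded 20 min post detection reagent.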
# [9] = molecular target: Cytochrome P450 2C19 (Homo sapiens) (UniProt P33261); assay: Cytochrome P450 Family 2 Subfamily C Member 19 (CYP2C19) small molecule antagonists: luciferase reporter qHTS assay (AID 1671197); note: potency is the fitted concentration of half-maximal effect; nearly all actives have a fitted effect of over 65% in size
# Chain of UniProt P33261 (P33261 whole entry, looked up): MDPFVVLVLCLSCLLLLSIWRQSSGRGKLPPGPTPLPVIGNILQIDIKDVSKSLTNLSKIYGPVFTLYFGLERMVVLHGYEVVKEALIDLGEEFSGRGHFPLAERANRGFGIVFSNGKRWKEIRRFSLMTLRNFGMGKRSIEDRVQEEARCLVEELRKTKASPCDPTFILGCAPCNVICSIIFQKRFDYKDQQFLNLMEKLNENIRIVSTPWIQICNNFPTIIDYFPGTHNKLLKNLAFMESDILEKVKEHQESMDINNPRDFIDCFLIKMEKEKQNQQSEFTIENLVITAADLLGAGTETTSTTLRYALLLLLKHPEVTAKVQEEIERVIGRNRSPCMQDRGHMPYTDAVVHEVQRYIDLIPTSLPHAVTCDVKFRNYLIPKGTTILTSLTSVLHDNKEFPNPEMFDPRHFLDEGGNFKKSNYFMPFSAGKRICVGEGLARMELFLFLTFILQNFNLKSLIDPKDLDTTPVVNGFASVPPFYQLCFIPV
# Outline: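 P450-Glo CYP2C19 system: enzyme-substrate mix with compound 10 min at room temperature, then NADPH regeneration solution, 1 h at 37C. Proluciferin-to-luciferin conversion detected by luminescence after 20 min with detection reagent; ketoconazole as positive control.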
# [10] = molecular target: Voltage-gated inwardly rectifying potassium channel KCNH2 (Homo sapiens) (UniProt Q12809); assay: Human Ether-a-go-go-Related Gene (hERG) channel small molecule antagonists: fluorescence cell-based qHTS assay (AID 1671200)
# Chain of UniProt Q12809 (Q12809 whole entry, looked up): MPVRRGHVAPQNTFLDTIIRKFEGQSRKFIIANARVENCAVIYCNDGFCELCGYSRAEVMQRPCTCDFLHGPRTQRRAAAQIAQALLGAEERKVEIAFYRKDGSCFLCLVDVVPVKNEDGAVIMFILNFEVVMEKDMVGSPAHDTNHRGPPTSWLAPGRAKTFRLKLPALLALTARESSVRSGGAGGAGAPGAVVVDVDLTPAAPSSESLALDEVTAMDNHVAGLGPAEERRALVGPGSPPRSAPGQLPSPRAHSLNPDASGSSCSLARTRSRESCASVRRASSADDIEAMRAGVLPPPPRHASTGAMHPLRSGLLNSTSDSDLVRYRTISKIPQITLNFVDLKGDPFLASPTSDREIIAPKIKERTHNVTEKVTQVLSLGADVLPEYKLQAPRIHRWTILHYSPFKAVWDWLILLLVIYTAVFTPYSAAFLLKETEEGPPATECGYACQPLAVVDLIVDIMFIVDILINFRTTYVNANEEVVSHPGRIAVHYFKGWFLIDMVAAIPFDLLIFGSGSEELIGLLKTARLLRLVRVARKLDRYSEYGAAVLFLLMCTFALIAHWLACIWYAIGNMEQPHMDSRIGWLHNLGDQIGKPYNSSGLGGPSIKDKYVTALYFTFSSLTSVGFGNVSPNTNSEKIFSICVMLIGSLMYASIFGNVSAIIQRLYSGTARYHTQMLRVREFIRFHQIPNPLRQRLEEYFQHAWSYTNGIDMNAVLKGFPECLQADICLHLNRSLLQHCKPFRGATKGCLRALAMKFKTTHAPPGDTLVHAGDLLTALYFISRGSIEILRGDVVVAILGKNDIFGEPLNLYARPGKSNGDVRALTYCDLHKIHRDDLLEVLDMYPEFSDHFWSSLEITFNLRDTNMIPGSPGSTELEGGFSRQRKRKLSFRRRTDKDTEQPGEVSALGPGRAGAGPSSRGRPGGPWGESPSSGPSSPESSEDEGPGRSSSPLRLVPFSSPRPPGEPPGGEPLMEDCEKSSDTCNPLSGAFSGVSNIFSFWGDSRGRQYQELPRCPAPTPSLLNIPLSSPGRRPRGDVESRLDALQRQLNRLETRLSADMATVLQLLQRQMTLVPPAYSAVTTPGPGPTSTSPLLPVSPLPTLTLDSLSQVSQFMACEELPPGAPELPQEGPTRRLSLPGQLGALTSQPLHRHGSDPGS
# Outline: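 In this thallium-flux screen, overnight-cultured U2OS cells bearing the channel are dye-loaded in darkness for an hour, rested 10 min at room temperature, and then monitored kinetically at 480/540 nm for two minutes post-stimulus.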
# [11] = molecular target: Cytochrome P450 3A4 (Homo sapiens) (UniProt P08684); assay: Cytochrome P450 Family 3 Subfamily A Member 4 (CYP3A4) small molecule antagonists: luciferase reporter qHTS assay (AID 1671201)
# Chain of UniProt P08684 (P08684 whole entry, looked up): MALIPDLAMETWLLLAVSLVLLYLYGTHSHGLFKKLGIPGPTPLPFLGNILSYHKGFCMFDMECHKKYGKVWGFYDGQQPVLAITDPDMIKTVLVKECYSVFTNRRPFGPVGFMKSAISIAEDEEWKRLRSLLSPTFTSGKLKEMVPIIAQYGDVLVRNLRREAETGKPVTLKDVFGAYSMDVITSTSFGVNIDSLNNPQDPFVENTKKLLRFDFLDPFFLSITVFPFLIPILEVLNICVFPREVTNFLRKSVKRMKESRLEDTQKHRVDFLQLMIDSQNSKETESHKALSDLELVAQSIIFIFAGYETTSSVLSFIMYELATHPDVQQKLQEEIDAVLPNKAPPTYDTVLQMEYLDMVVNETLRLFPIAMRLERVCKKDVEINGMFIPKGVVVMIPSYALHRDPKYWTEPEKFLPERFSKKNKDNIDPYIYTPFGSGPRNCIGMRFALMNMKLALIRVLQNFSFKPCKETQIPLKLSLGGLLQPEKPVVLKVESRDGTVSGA
# Outline: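 CYP3A4 activity was followed with a P450-Glo proluciferin substrate. Test compounds in DMSO were preincubated 10 min; NADPH regeneration then ran 1 h, and light output was read 20 min after detection reagent.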
# [12] = Caspase-3/7 induction in HepG2 cells by small molecules, qHTS cell viability counter screen (AID 1346981); note: potency is the fitted concentration of half-maximal effect; nearly all actives have a fitted effect of over 30% in size
# Outline: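 The parent HepG2 line is plated at 2,000 cells per well and rested 5 hr before compound pinning from DMSO stocks. Following a 16-hr treatment at 37 C, a fluorogenic live-cell substrate (CellTiter-Fluor) reports viability after 1 hr.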
# Tags give direction and shape of the fitted curve.
smiles,measurement,setting,value
O=S(=O)(O)c1cc(S(=O)(=O)O)c2ccc3c(S(=O)(=O)O)cc(S(=O)(=O)O)c4ccc1c2c43,"activity, negative = inhibition",[1],inconclusive: 30.1% [at 15.8 µM]
same,"activity change, negative = cytotoxicity",[2],inactive: 3.17% [at 19 µM]
same,activation,[3],inactive: -3.44% [at 19 µM]
CNCCCCOc1ccccc1Cc1ccccc1,Potency,[4],"inconclusive: 31.6 µM [activator, single point]"
C[C@]12CCC(=O)C=C1[C@@H]1C[C@@H]1[C@H]1[C@@H]3[C@@H]4C[C@@H]4[C@@]4(CCC(=O)O4)[C@@]3(C)CC[C@@H]12,Potency,[5],"inconclusive: 1.78 µM [activator, full curve, poor fit]"
C=COCCCCO,"activity, negative = inhibition",[1],inconclusive: 19%
same,Potency,[3],"inconclusive: 30.6 µM [activator, single point]"
same,Potency,[6],"inconclusive: 39.9 µM [inhibitor, partial curve]"
same,Potency,[7],"inconclusive: 39.9 µM [inhibitor, partial curve]"
Nc1cccc(C(F)(F)F)c1,"activity, negative = inhibition",[1],inconclusive: 14.1%
same,Potency,[8],"inconclusive: 35.6 µM [inhibitor, partial curve, poor fit]"
Cc1ccc(S(=O)(=O)N=C=O)cc1,"activity, negative = inhibition",[1],inconclusive: -14.6%
same,Potency,[3],"inconclusive: 15.1 µM [activator, single point]"
same,Potency,[8],inactive
same,Potency,[9],"inconclusive: 89.4 µM [inhibitor, single point]"
same,Potency,[7],inconclusive: 71 µM [inhibitor]
C#CCOC(=O)[C@@H](C)Oc1ccc(Oc2ncc(Cl)cc2F)cc1,"activity, negative = inhibition",[1],inconclusive: 1.74%
same,Potency,[8],inconclusive: 31.6 µM [inhibitor]
same,Potency,[10],"inconclusive: 54.7 µM [inhibitor, partial curve, poor fit]"
same,Potency,[11],"inconclusive: 22.3 µM [inhibitor, partial curve]"
C[C@]12CCC(=O)C=C1CC[C@@H]1[C@@H]2CC[C@@]2(C)[C@H]1CC[C@]2(O)C(=O)CO,"activity, negative = inhibition",[1],inconclusive: -22.9% [at 35.3 µM]
same,Potency,[12],"inconclusive: 29.8 µM [rising, partial curve]"
same,Potency,[8],"inconclusive: 38.9 µM [inhibitor, single point]"
same,Potency,[6],"inconclusive: 34.7 µM [inhibitor, partial curve, poor fit]"
O=C1CCCCCCCCCCCC(=O)OCCO1,"activity, negative = inhibition",[1],inconclusive: -2.01%
same,Potency,[8],inconclusive: 71 µM [inhibitor]
same,Potency,[6],active: 63.3 µM
same,Potency,[7],active: 39.9 µM
same,Potency,[10],"inconclusive: 54.9 µM [inhibitor, single point]"
same,Potency,[11],active: 35.6 µM
